Reference: patent US20150250174A1, “USE OF N-THIO-ANTHRANILAMIDE COMPOUNDS ON CULTIVATED PLANTS” (BASF SE, priority 2012, published 2015)

Tested on: Anticarsia gemmatalis
Test: whole plant or invertebrate
Conditions: in Glycine max, 48 h, read-out: mortality 2 DAA

## CCS(CC)=NC(=O)c1cc(Cl)cc(C)c1NC(=O)c1cc(C(F)(F)F)nn1-c1ncccc1Cl [compound I-11, 2-(3-chloro-2-pyridyl)-N-[2-methyl-4-chloro-6-[(diethyl-λ^4-sulfanylidene)carbamoyl]phenyl]-5-(trifluoromethyl)pyrazole-3-carboxamide]
  mortality at 12.5 g/ha: 81%
